Our source for the cytotoxicity call values is the antibiotic and cytotoxicity screens of Wong et al. (2023).

The list shows a part of the results.

The test concerns HSkMC (human skeletal muscle cells). Nature of the test: cytotoxicity call (relative viability < 0.9). Particulars: 10 µM.
As for `O=C(C[C@@H]1CC[C@H]2[C@@H](COC[C@H](O)CN2S(=O)(=O)c2ccc(Cl)cc2)O1)N[C@H]1CCN(Cc2ccccc2)C1`, the cytotoxicity call is “inactive”. The result for `C[C@H](CO)N1C[C@H](C)[C@H](CN(C)Cc2ccncc2)Oc2ccc(NC(=O)c3ccncc3)cc2CC1=O` reads “inactive”; that for `CN1CCN(C(=O)C[C@H]2CC[C@H]3[C@@H](COc4ccc(NC(=O)C5CCCCC5)cc4C(=O)N3C)O2)CC1`, “inactive”; that for `C[C@@H]1CN([C@@H](C)CO)C(=O)c2cc(NS(=O)(=O)c3cn(C)cn3)ccc2O[C@@H]1CN(C)S(=O)(=O)c1ccccc1`, “inactive”. The result for `C[C@@H]1CN([C@H](C)CO)C(=O)c2cc(NC(=O)C3CCCCC3)ccc2O[C@@H](C)CCCCO[C@@H]1CN(C)S(=O)(=O)c1ccc(Cl)cc1` reads “inactive”.

As to `CO[C@H]1CN(C)C(=O)c2ccc(NS(C)(=O)=O)cc2OC[C@@H](C)N(C(=O)C2CCOCC2)C[C@H]1C`, the cytotoxicity call is “inactive”. In the case of `O=C(C[C@@H]1C[C@@H]2c3cc(NC(=O)c4ccc5c(c4)OCO5)ccc3O[C@@H]2[C@@H](CO)O1)NCc1ccccn1`, the cytotoxicity call is “inactive”. Next, `CCNC(=O)[C@@H]1CCCN1C(=O)[C@H](CCCNC(=N)N)NC(=O)[C@H](CC(C)C)NC(=O)[C@@H](COC(C)(C)C)NC(=O)[C@H](Cc1ccc(O)cc1)NC(=O)[C@H](CO)NC(=O)[C@H](Cc1c[nH]c2ccccc12)NC(=O)[C@H](Cc1cnc[nH]1)NC(=O)[C@H]1CCC(=O)N1`: “inactive”; `CN1C(C(=O)Nc2ccccn2)=C(O)c2ccccc2S1(=O)=O`: “inactive”.

With `Cc1ccc(S(=O)(=O)N(C)C[C@H]2Oc3ccc(NC(=O)Nc4cccc5ccccc45)cc3CC(=O)N([C@@H](C)CO)C[C@H]2C)cc1`, the cytotoxicity call is “inactive”.

For the compound `O=C(C[C@H]1C[C@H]2c3cc(NC(=O)C4CCOCC4)ccc3O[C@H]2[C@H](CO)O1)NCc1cc(F)ccc1F`, the cytotoxicity call is “inactive”.

As to `COc1ccc(S(=O)(=O)Nc2cccc3c2O[C@@H](CN(C)C(=O)Nc2c(C)noc2C)[C@H](C)CN([C@H](C)CO)C3=O)cc1`, the cytotoxicity call was “inactive”.

For the compound `C[C@H](CO)N1C[C@H](C)[C@@H](CN(C)C(=O)Nc2ccc3c(c2)OCO3)OCCCC[C@H](C)Oc2ccc(NS(=O)(=O)c3ccc(F)cc3)cc2C1=O`, the cytotoxicity call is “inactive”. The result for `CO[C@H](CN(C)S(=O)(=O)c1ccc(C)cc1)[C@@H](C)CN([C@H](C)CO)S(=O)(=O)c1cccc(Cl)c1` reads “inactive”; that for `CCc1nc2ccc(C(=O)Nc3cc(-c4ccccc4)ccc3OC)cn2c1N(C)Cc1ccc(OC)cc1`, “inactive”. Next, `C[C@@H]1CN([C@@H](C)CO)C(=O)Cc2cc(NC(=O)NC3CCCCC3)ccc2O[C@@H]1CN(C)C(=O)Nc1ccc(C(F)(F)F)cc1`: “inactive”. Next, `C[C@H]1CN([C@@H](C)CO)C(=O)c2cccc(NC(=O)Nc3ccc(C(F)(F)F)cc3)c2O[C@@H]1CN(C)Cc1ccc2c(c1)OCO2`: “active”; `C[C@@H]1COCCN1`: “inactive”; `C[C@H](CO)N1C[C@H](C)[C@H](CN(C)C(=O)Nc2ccc(C(F)(F)F)cc2)Oc2ccc(NC(=O)Cc3cn(C)c4ccccc34)cc2C1=O`: “inactive”.

Regarding `C[C@H](CO)N1C[C@H](C)[C@H](CN(C)Cc2ccc(Cl)c(Cl)c2)Oc2ccc(NC(=O)Cc3ccccc3)cc2C1=O`, the cytotoxicity call was “inactive”. The result for `CC(C)NC(=O)Nc1ccc2c(c1)C(=O)N([C@@H](C)CO)C[C@H](C)[C@@H](CN(C)S(=O)(=O)c1ccc(Cl)cc1)O2` reads “inactive”. Next, `O=C(N[C@@H]1CC=CC[C@H](CC(=O)N(CCO)Cc2ccccc2)C(=O)N[C@@H](Cc2ccccc2)COC1=O)OCC1c2ccccc2-c2ccccc21`: “inactive”.

For `Cc1noc(C)c1S(=O)(=O)N(C)C[C@@H]1Oc2ccc(NC(=O)CCCN(C)C)cc2CC(=O)N([C@@H](C)CO)C[C@H]1C`, the cytotoxicity call was “inactive”. Consider `CC(C)NC(=O)Nc1ccc2c(c1)C(=O)N([C@H](C)CO)C[C@H](C)[C@@H](CN(C)Cc1ccc(C(=O)O)cc1)O2`, for which the cytotoxicity call is “inactive”. The result for `C[C@@H]1CCCCO[C@@H](CN(C)C(=O)NC2CCCCC2)[C@@H](C)CN([C@@H](C)CO)C(=O)c2cc(NC(=O)NC3CCCCC3)ccc2O1` reads “inactive”. The result for `Cc1ccc(S(=O)(=O)N(C)C[C@H]2Oc3ncc(Br)cc3C(=O)N([C@@H](C)CO)C[C@H]2C)cc1` reads “inactive”; that for `C[C@H]1CN([C@@H](C)CO)S(=O)(=O)c2ccc(C#CC3CC3)cc2O[C@H]1CN(C)C(=O)Cc1ccncc1`, “inactive”; that for `C[C@H](CO)N1C[C@H](C)[C@H](CN(C)C(=O)NC2CCCCC2)OCc2ccccc2-c2c(n(C)c3ccccc23)C1=O`, “inactive”.
